{"source": "PubChem BioAssay AID504333", "about": "(National Center for Advancing Translational Sciences (NCATS), 2011)", "note": "Where “and” joins values, the source holds several entries; their conditions need not be identical. Equal entries are not always repeated. The whole screen tested about 360,000 compounds, of which about 16,000 (4.4%) were called active. The shares of active, inactive and inconclusive entries below differ from those in the screen. Calls come from the whole dose curve; as a rule, active = well fitted inhibition curve with a large enough effect; inconclusive = small, poorly fitted or top-dose-only effect; inactive = no such curve, though single readings can be large or run the other way. Potencies beside an inconclusive call are fits to weak or partial responses and may not hold up. % is set by controls: 0 for no effect and ±100 for the full control effect; potency is the fitted concentration of half-maximal effect; tags give direction and shape of the fitted curve.", "data": [{"biological_target": "Bromodomain adjacent to zinc finger domain protein 2B (Homo sapiens) (UniProt Q9UIF8)", "sequence (Q9UIF8 whole entry, looked up, the tested form may be a part)": "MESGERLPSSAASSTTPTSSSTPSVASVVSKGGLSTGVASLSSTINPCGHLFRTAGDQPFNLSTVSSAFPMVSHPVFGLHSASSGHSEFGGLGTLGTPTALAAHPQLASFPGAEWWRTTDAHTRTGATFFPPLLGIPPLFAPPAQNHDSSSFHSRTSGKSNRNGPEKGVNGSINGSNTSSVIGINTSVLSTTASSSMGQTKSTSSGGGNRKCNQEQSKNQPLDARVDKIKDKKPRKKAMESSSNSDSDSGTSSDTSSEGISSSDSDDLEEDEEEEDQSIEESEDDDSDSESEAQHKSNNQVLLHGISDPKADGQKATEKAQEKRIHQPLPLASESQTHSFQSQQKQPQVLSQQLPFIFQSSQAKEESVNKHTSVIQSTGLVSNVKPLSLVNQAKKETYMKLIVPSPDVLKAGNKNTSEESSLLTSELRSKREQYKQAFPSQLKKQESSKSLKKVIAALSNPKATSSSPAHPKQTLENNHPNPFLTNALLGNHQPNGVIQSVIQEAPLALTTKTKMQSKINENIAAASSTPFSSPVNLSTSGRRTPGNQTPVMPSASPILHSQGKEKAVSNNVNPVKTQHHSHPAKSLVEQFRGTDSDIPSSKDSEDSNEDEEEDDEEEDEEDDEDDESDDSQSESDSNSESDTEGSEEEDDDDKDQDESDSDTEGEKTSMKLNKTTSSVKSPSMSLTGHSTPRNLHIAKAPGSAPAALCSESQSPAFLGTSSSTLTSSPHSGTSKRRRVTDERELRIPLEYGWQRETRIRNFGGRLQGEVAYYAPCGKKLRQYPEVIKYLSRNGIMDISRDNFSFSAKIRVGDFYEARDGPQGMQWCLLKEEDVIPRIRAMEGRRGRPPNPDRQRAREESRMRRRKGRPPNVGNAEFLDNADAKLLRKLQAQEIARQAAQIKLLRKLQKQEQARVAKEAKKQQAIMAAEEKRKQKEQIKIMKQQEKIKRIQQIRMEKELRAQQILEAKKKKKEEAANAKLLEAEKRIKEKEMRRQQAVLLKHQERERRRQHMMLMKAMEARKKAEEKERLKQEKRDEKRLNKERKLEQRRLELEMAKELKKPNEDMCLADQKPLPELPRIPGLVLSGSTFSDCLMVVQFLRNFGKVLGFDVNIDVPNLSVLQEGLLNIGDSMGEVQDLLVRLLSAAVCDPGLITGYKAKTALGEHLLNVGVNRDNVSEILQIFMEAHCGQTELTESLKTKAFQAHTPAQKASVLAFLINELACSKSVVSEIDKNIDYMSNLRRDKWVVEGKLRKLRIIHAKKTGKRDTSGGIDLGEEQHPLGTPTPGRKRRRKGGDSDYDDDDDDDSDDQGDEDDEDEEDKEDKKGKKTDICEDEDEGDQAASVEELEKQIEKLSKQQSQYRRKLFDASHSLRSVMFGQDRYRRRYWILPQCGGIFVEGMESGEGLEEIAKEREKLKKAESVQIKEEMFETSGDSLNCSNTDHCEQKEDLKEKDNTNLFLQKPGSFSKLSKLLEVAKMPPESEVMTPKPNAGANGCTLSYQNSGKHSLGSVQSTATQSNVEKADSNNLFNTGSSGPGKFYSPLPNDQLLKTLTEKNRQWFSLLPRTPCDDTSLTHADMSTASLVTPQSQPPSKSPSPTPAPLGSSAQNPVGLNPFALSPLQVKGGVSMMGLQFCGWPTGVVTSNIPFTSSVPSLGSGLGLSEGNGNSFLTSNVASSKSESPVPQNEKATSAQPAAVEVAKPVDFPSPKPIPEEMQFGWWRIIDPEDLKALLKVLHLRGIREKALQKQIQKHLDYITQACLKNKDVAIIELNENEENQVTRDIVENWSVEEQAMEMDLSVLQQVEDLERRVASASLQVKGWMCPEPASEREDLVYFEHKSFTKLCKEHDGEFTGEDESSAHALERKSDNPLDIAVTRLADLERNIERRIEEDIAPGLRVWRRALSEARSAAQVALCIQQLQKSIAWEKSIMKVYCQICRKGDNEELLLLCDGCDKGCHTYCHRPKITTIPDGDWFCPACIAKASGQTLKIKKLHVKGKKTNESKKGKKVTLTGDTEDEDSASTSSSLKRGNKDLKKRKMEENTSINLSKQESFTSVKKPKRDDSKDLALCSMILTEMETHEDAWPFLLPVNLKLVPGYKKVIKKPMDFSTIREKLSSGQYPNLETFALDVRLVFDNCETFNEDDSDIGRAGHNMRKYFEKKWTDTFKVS", "assay": "qHTS Assay for Inhibitors of BAZ2B; note: nearly all actives have a fitted effect of over 60% in size", "settings": "AlphaScreen BAZ2B-H3K14Ac peptide displacement; activity change, negative = inhibition: at 114 µM (top of the series)", "outline": "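Complex of BAZ2B and biotin-H3K14Ac (50 nM apiece) forms over 30 min at RT, then faces library compounds up to 110 uM for another 30 min; AlphaScreen beads added, 20 min dark incubation, luminescence read.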", "values": [{"smiles": "CCOc1ccc2c(c1)[nH]c(=S)n2C", "activity change, negative = inhibition": "inactive: -14.6%"}, {"smiles": "CC(=O)Nc1ccc(S(=O)(=O)N2CCN(CC3CC4C=CC3C4)CC2)cc1", "note": "(stereo not drawn)", "Potency": "active: 35.5 µM"}, {"smiles": "COC(=O)c1cc(NS(=O)(=O)c2ccc(N3CCOCC3)c([N+](=O)[O-])c2)cc(C(=O)OC)c1", "Potency": "inconclusive: 39.8 µM [inhibitor, partial curve]"}, {"smiles": "Cc1ccc(N2C(=O)N3[C@H]4c5ccccc5OC[C@@H]4[C@@H](c4ccccc4)[C@@]3(C)C2=O)cc1", "Potency": "inconclusive: 89.1 µM [inhibitor, single point]"}, {"smiles": "CC(C)(C)N=Cc1cc(-c2ccccc2)sc1O", "activity change, negative = inhibition": "inactive: -9.85%"}, {"smiles": "COc1ccc(Nc2ccc(S(=O)(=O)N3CCCCC3)cc2[N+](=O)[O-])cc1Cl", "Potency": "active: 8.91 µM"}, {"smiles": "CCC(=O)Nc1ccc(C(=O)OCC(=O)c2ccc(C)c([N+](=O)[O-])c2)cc1", "Potency": "inconclusive: 89.1 µM [inhibitor, single point]"}, {"smiles": "COc1cc(/C=N/N2CCCCC2)cc(OC)c1O", "activity change, negative = inhibition": "inactive: -34.1%"}, {"smiles": "CNC(=S)N(CCc1cccc(C)c1)Cc1cc2cc(OC)c(OC)cc2[nH]c1=O", "Potency": "inconclusive: 89.1 µM [inhibitor, single point]"}, {"smiles": "O=C(CN1CCN(c2ccccn2)CC1)N1c2ccccc2CCc2ccccc21", "Potency": "active: 31.6 µM"}, {"smiles": "O=c1c2cnn(-c3ccccc3)c2nc(-c2cccs2)n1-c1ccc(Cl)cc1", "Potency": "inconclusive: 89.1 µM [inhibitor, single point]"}, {"smiles": "COc1ccc(-c2cc(C(=O)Nc3cccc(C(C)=O)c3)no2)cc1", "Potency": "inconclusive: 7.08 µM [inhibitor, single point]"}, {"smiles": "CCOC(=O)c1c(NC(NC(C)=O)C(Cl)(Cl)Cl)sc(C(C)=O)c1C", "note": "(stereo not drawn)", "Potency": "inconclusive: 79.4 µM [inhibitor, single point]"}, {"smiles": "Nc1nc(-c2ccco2)c(-c2ccco2)s1", "Potency": "active: 44.7 µM"}, {"smiles": "COc1ccc2nc(NC(=O)CSCc3c(C)noc3C)sc2c1", "activity change, negative = inhibition": "inactive: -8.26%"}, {"smiles": "COC(=O)Cn1c2c(c3cc(C)ccc31)CCCC2NC(C)c1ccccc1", "note": "(stereo not drawn)", "Potency": "inconclusive: 79.4 µM [inhibitor, partial curve]"}, {"smiles": "CCOc1ccc(N=C2NC(=O)S/C2=C\\c2ccc(OC)cc2)cc1", "Potency": "inconclusive: 70.8 µM [inhibitor, single point]"}, {"smiles": "COc1ccc2cc(C3CC(c4cccs4)=NN3S(C)(=O)=O)c(Cl)nc2c1", "note": "(stereo not drawn)", "activity change, negative = inhibition": "inactive: 0.306%"}, {"smiles": "CC1(C)CC(=O)C(N=Nc2cc3c(cc2[N+](=O)[O-])OCCO3)=C(O)C1", "Potency": "inconclusive: 79.4 µM [inhibitor, single point]"}, {"smiles": "CCn1c(C)cc(/C=C2/NC(=O)N(c3ccccc3)C2=O)c1C", "Potency": "inconclusive: 70.8 µM [inhibitor, partial curve]"}, {"smiles": "Nc1ccccc1N=c1ssnc1Cl", "Potency": "active: 50.1 µM"}, {"smiles": "CCOC(=O)c1c(CSc2cccs2)n(C)c2cc(Br)c(O)c(CN(C)C)c12", "Potency": "active: 39.8 µM"}, {"smiles": "CCN(CC)S(=O)(=O)c1ccc(OC)c(NC(=O)Cc2cccs2)c1", "Potency": "active: 50.1 µM"}, {"smiles": "O=C(Cc1ccccc1)Nc1c(C(=O)Nc2ccccc2F)oc2ccccc12", "activity change, negative = inhibition": "inactive: -7.1%"}, {"smiles": "ClC(Cl)(c1nnnn1-c1ccccc1)c1nnnn1-c1ccccc1", "Potency": "active: 56.2 µM"}, {"smiles": "Cc1ccc(NC(=O)[C@H](Cc2c[nH]c3ccccc23)NC(=O)[C@@H]2Cc3ccccc3CN2)c(C)c1", "Potency": "inconclusive: 56.2 µM [inhibitor, partial curve]"}, {"smiles": "Cc1cc(=O)[nH]c(SCC(=O)NCc2ccco2)n1", "Potency": "inconclusive: 50.1 µM [inhibitor, partial curve]"}, {"smiles": "O=C(O)Cc1sc(N/N=C\\c2ccncc2)nc1-c1ccccc1", "activity change, negative = inhibition": "inactive: -21.1%"}, {"smiles": "N#C/C(=C\\c1ccc(-c2cc(Cl)ccc2Cl)o1)C(=O)Nc1ccccc1C(=O)O", "Potency": "inconclusive: 7.94 µM [inhibitor, full curve, poor fit]"}, {"smiles": "N#Cc1ccc(CSc2nnc(-c3ccccc3)n2Cc2ccco2)cc1", "activity change, negative = inhibition": "inactive: -35.3%"}, {"smiles": "O=C(CSc1nc2ccccc2n1Cc1ccccc1Cl)NCc1ccccc1", "activity change, negative = inhibition": "inactive: -12.2%"}, {"smiles": "COc1cccc(C=Nc2ccc3c(c2)CCC3)c1O", "Potency": "inconclusive: 50.1 µM [inhibitor, partial curve]"}, {"smiles": "CCOC(=O)c1[nH]cnc1C(=O)Nc1ccc(F)cc1", "Potency": "inconclusive: 79.4 µM [inhibitor, single point] and inconclusive: 89.1 µM [inhibitor, single point]"}, {"smiles": "Cc1ccccc1NC(=O)CSCc1cc(=O)n2ccsc2n1", "activity change, negative = inhibition": "inactive: -2.16%"}, {"smiles": "O=C(O)C1CCN(Cc2cccnc2)CC1", "activity change, negative = inhibition": "inactive: -32.4%"}, {"smiles": "O=C(Nc1cc(Cl)ccc1-n1cncn1)c1cc(F)cc(F)c1", "activity change, negative = inhibition": "inactive: 8.64%"}, {"smiles": "O=C(NCCCN1CCN(c2ccccc2F)CC1)c1nnc(Cc2ccc(Cl)cc2Cl)o1", "Potency": "inconclusive: 70.8 µM [inhibitor, single point]"}, {"smiles": "O=C(Nc1cccc(S(=O)(=O)NC2=NCCC2)c1)c1cc(-c2ccco2)nc2ccccc12", "Potency": "active: 35.5 µM"}, {"smiles": "Cc1ccc(C)c(NC(=O)C(Sc2cccc[n+]2[O-])c2ccccc2)c1", "note": "(stereo not drawn)", "activity change, negative = inhibition": "inactive: -1.32%"}, {"smiles": "CCOC(=O)C(=Cc1ccc(-n2ccnc2)cc1)C(=O)OCC", "Potency": "inconclusive: 56.2 µM [inhibitor, partial curve]"}, {"smiles": "Cc1nn(-c2ccccc2)c2c1C(c1ccco1)C(C#N)=C(N)O2", "note": "(stereo not drawn)", "Potency": "active: 39.8 µM"}, {"smiles": "O=C(CCCn1c(=S)[nH]c2ccsc2c1=O)NC1CCCCC1", "activity change, negative = inhibition": "inactive: -3.82%"}, {"smiles": "CC(C)OC(=O)c1cccnc1SCC(=O)N(C)c1ccccc1", "activity change, negative = inhibition": "inactive: 9.17%"}, {"smiles": "CCCCC(CC)CN1C(=O)/C(=C/c2ccncc2)SC1=S", "note": "(stereo not drawn)", "Potency": "inconclusive: 3.55 µM [inhibitor, full curve]"}, {"smiles": "CC(=O)c1ccc(N2CCN(C(=S)Nc3ccccc3C(F)(F)F)CC2)cc1", "Potency": "inconclusive: 56.2 µM [inhibitor, partial curve]"}, {"smiles": "Cc1ccc(/C=N/N2CCN(Cc3ccccc3)CC2)o1", "Potency": "inconclusive: 79.4 µM [inhibitor, single point]"}, {"smiles": "O=C1/C(=C/c2ccccc2)Oc2cc(OC(=O)N3CCOCC3)ccc21", "Potency": "inconclusive: 89.1 µM [inhibitor, single point]"}, {"smiles": "Cc1cc(C)cc(NC(=O)N2CCN(C/C=C/c3ccccc3)CC2)c1", "Potency": "inconclusive: 79.4 µM [inhibitor, single point]"}]}]}
